Consider 42 molecules from ChEMBL document CHEMBL4888484, “Replenishing the malaria drug discovery pipeline: Screening and hit evaluation of the MMV Hit Generation Library 1 (HGL1) against asexual blood stage Plasmodium falciparum ,using a nano luciferase reporter read-out” (2022).

What is called % Inhibition is the drop in the measured response relative to a control, in per cent.

The campaign covered roughly 150,000 compounds. About 540 (0.36%) showed an effect of 50% or more. The list shows a part of the results.

The test system of this test is Plasmodium falciparum. The test can be described thus: Primary screen in NF54 nanoGlo assay, in single point, at 2uM, 72h; a lower Z score goes with more inhibition. Type of test: functional, Erythrocyte. The note with it: timepoint 72 hour.
Regarding `COCc1cn(C2CCN(C(=O)NC3CCCC3)CC2)nn1`, the “% Inhibition” value was 1% and the Z score is listed as -0.26.

On to `Cc1ccc(CC(=O)Nc2cc(Cl)cc(C(=O)O)c2)o1`, for which the “% Inhibition” value is listed as 0% and the Z score came out at 0.09.

For the molecule `Cc1cc2ncn(Cc3ccoc3C(=O)O)c2cc1C`, the “% Inhibition” value was -1% and the Z score is 0.14.

Regarding `CC(=O)N1CCc2ccc(OCc3nc(C(=O)NCc4cccc(F)c4)cs3)cc2[C@@H]1c1cccc(F)c1`, the “% Inhibition” value is given as -12% and the Z score came out at 1.13.

Consider `CCN(C(=O)c1ccnn1C)c1ncccc1C`, for which the “% Inhibition” value is listed as 3% and the Z score was -0.24.

In the case of `Cc1ccc(S(=O)(=O)NC[C@H]2CCCN2c2ncccn2)cc1C`, the “% Inhibition” value is 16% and the Z score is on record as -1.8.

As for `O=C(C1CCCN1c1ncccn1)N1CCCC(O)C1` (centres undefined), the “% Inhibition” value is -12% and the Z score is 1.06.

With `O=C(NS(=O)(=O)[C@H]1CCCOC1)c1ccc2sccc2c1`, the “% Inhibition” value was -14% and the Z score was determined as 2.66.

Take `Cc1nc([C@H](C)NC(=O)CCC(F)(F)F)n[nH]1`: the “% Inhibition” value is -16% and the Z score was 2.43.

As to `CCOC[C@H](C)CS(=O)(=O)NCCc1cc[nH]n1`, the “% Inhibition” value was -12% and the Z score stood at 1.54.

On to `O=S(=O)(c1cncc(Br)c1)N1CCCCO1`, for which the “% Inhibition” value is given as -7% and the Z score came out at 0.97.

For the molecule `O=C1COc2ccccc2CN1C1CCCCCC1`, the “% Inhibition” value is recorded as -2% and the Z score is 0.2.

Take `CNC(=O)c1noc(CN2C[C@@](C)(Cc3ccc4c(c3)OCO4)CCC2=O)n1`: the “% Inhibition” value was -6% and the Z score turned out to be 0.77.

With `Cn1ccnc1CN1CCO[C@H](C(=O)NCCc2cccnc2)C1`, the “% Inhibition” value was -3% and the Z score came to 0.69.

As to `CCNC(=O)N1CCC(N2C[C@H](OCC3CC3)C23CCOCC3)CC1`, the “% Inhibition” value is -3% and the Z score is reported as 0.58.

`O=C(Cn1nc(C2CC2)cc1C(=O)N1CCCC1)Nc1ccc(F)c(F)c1`: the “% Inhibition” value is -9% and the Z score is 1.47.

As for `Cc1ccc(NC(=O)Cn2c(=O)n(Cc3cccc(Cl)c3)c(=O)c3ccccc32)c(Cl)c1`, the “% Inhibition” value is listed as 4% and the Z score was -0.44.

Take `CC1CC(NCC2(C)CCN(C(=O)OC(C)(C)C)CC2)CC(C)O1` (centres undefined): the “% Inhibition” value turned out to be 6% and the Z score is -0.91.

On to `O=C(Cc1cccnc1)N1CC(n2cnnc2C2CCOCC2)C1`, for which the “% Inhibition” value is recorded as -2% and the Z score was 0.37.

For the molecule `CCCN(Cc1ccncc1)Cc1ccccn1`, the “% Inhibition” value was -16% and the Z score was determined as 2.2.

On to `CNC(=O)[C@@H]1C[C@H](NCc2cc(F)ccc2F)CN1Cc1ccccc1Cl`, for which the “% Inhibition” value was found to be 13% and the Z score is on record as -1.65.

Regarding `C[C@H](NC(=O)C1CCOCC1)c1ccc(Cl)s1`, the “% Inhibition” value is listed as 1% and the Z score is -0.15.

As to `CCN(Cc1cccs1)C(=O)c1cccc(S(=O)(=O)N2CC(C)CC(C)C2)c1` (centres undefined), the “% Inhibition” value stood at 4% and the Z score is recorded as -0.37.

Take `CCOC(=O)N1CCN(C(=O)c2noc3c2C[C@@H](C(C)(C)C)CC3)CC1`: the “% Inhibition” value is recorded as -37% and the Z score amounted to 4.29.

Regarding `CCCN1C(=O)c2cc(S(=O)(=O)N(C)Cc3ccccc3)ccc2Oc2cccnc21`, the “% Inhibition” value amounted to 2% and the Z score is -0.36.

Consider `CCOc1ccccc1N(C)Cc1noc(C2CC2)n1`, for which the “% Inhibition” value was -7% and the Z score is reported as 0.97.

For the molecule `COc1ccc(OC)c(CNC(=O)CN2C(=O)CCn3nc(-c4cccc(Cl)c4)cc32)c1`, the “% Inhibition” value is given as 4% and the Z score is -0.44.

For `Cc1oc(-c2[nH]ncc2C(=O)N2CCOCC2)cc1S(=O)(=O)N1CCN(C)CC1`, the “% Inhibition” value is -4% and the Z score was 0.57.

With `Cc1ccc(-c2nn(Cc3cccnc3)c(=O)n2C)s1`, the “% Inhibition” value is listed as -6% and the Z score is reported as 0.91.

In the case of `CCOc1ccnc(N2CC[C@H](O)CC(C)(C)C2)n1`, the “% Inhibition” value is given as -12% and the Z score is given as 1.33.

For the molecule `O=C(c1ccc(Nc2c(Oc3ccccc3)cnn(-c3ccccc3)c2=O)cc1)N1CCCCC1`, the “% Inhibition” value was 12% and the Z score is given as -1.25.

For the molecule `CO[C@@H](CNC(=O)C(=O)NCc1ccc(F)cc1)c1cc2ccccc2o1`, the “% Inhibition” value was -21% and the Z score stood at 3.62.

Take `C[C@@H](Cn1cnc2ccccc2c1=O)NCC1(CO)CCC1`: the “% Inhibition” value was determined as 3% and the Z score is given as -0.39.

`Cc1ccccc1CN1CCn2c(nn(C)c2=O)C1`: the “% Inhibition” value was -14% and the Z score worked out at 2.46.

In the case of `CC(C)c1ccnc(NC[C@@H](c2ccco2)N(C)C)n1`, the “% Inhibition” value is given as -8% and the Z score is on record as 1.51.

For `Cc1nn(C)c2nc(N3CCC(OCCN(C)C)CC3)sc12`, the “% Inhibition” value is on record as -7% and the Z score was 1.04.

With `CC1(C)CN(C(=O)[C@@H]2CCc3cc(F)ccc32)CCO1`, the “% Inhibition” value was 2% and the Z score is listed as -0.33.

`CC1C(C(F)(F)F)OCCN1C(=O)c1ncc2ccccc2c1O` (centres undefined): the “% Inhibition” value is listed as -15% and the Z score stood at 1.39.

Take `C[C@H]1Cc2cc(S(=O)(=O)N3CCC(C(=O)NCc4ccccc4)CC3)ccc2N1C(=O)C1CCC1`: the “% Inhibition” value is on record as -8% and the Z score was found to be 1.35.

`COc1ccccc1CNC(=O)c1ccc2c(c1)N(C(=O)c1ccc(F)cc1)CC2`: the “% Inhibition” value is reported as -6% and the Z score is 0.73.

Turning to `O=C(CC[C@@H]1NC(=O)c2ccccc2N=C1O)NCCc1ccc(Cl)cc1`, the “% Inhibition” value was -10% and the Z score stood at 1.15.

With `Cc1[nH]c(CN2CCC(C)(C(=O)N(C)C)CC2)cc1C#N`, the “% Inhibition” value is on record as -9% and the Z score is recorded as 1.8.
